In patent US7547818B2, “Metaphase donor cells for effective nuclear reprogramming in mammals” (The University of Georgia research Foundation, Inc., priority 2000, dated 2009):

What was measured:
pig oocytes = assay: Arrest of oocytes in MI during in vitro maturation; format: cell-based
pig ear fibroblasts = assay: Cell cycle phases by flow cytometry (propidium iodide DNA content) after cell cycle inhibitors; format: cell-based; details: for percentage of cells in G2/M / percentage of cells in Late G1 / percentage of cells in S: 26 hours; for percentage of cells in G2/M, averaged / percentage of cells in Late G1, averaged / percentage of cells in S, averaged: average of the two replicates in table 5
bovine granulosa cells = assay: as above; format: cell-based; details: for percentage of cells in G2/M / percentage of cells in Late G1 / percentage of cells in S: 26 hours, replicates; for percentage of cells in G2/M, averaged / percentage of cells in Late G1, averaged / percentage of cells in S, averaged: average of the two replicates in table 4
[1] = system: bovine NT embryos derived from granulosa cells; assay: In vitro development of NT embryos from roscovitine treated donor cells; details: donor granulosa cells treated with 15 μM roscovitine; day seven
[2] = system: transferred bovine NT blastocysts; assay: Embryo transfer and fetal development of NT embryos in recipient females
bovine somatic cells = assay: Arrest of bovine somatic cells in metaphase by nocodazole, Hoechst staining; format: cell-based; details: for Percentage of bovine somatic cells in culture arrested: 200 observed
[3] = transferred blastocysts derived from roscovitine treated cells

`C=C1[C@@H](C)[C@H]2[C@H](Cc3ccccc3)NC(=O)[C@]23OC(=O)/C=C/[C@H](O)CCC[C@@H](C)C/C=C/[C@H]3[C@@H]1O` [Cyt B, cytochalasin B] was tested, and the “Proportions of pig oocytes reaching MI” value (pig oocytes; Cyt B 1 μg/ml 24-29 hours, examined 29 hours after onset of IVM) was 85.6 ± 7.6%^a (85), the “Proportions of pig oocytes reaching MI” value (pig oocytes; Cyt B 1 μg/ml 30-35 hours, examined 35 hours after onset of IVM) was 50.4 ± 9.7%^b (94) and the “Proportions of pig oocytes reaching MI” value (pig oocytes; Cyt B 7.5 μg/ml 24-29 hours, examined 29 hours after onset of IVM) was 84.6 ± 6.1%^a (88). The “Proportions of pig oocytes reaching MI” value (pig oocytes; Cyt B 7.5 μg/ml 30-35 hours, examined 35 hours after onset of IVM) was 59.0 ± 2.4%^b (92), the “Proportion of oocytes at M I phase in comparison to control oocytes” value (pig oocytes; at 29 hours after IVM) was “did not significantly increase” and the “Arresting oocytes at M I phase” value (pig oocytes; treatment between 30 and 35 hours after IVM) was “not effective”.

For `Cn1cnc2c(NCc3ccccc3)nc(NCCO)nc21` [Olo, olomoucine], the “percentage of cells in G2/M” value (pig ear fibroblasts; 100 μM) was 8.21%, the “percentage of cells in G2/M, averaged” value (pig ear fibroblasts; 100 μM) was 8.21% and the “percentage of cells in G2/M” value (bovine granulosa cells; 100 μM) was 10.10% and 8.49%. For the same compound, the “percentage of cells in Late G1” value (bovine granulosa cells; 100 μM) was 68.70% and 67.73%, the “percentage of cells in S” value (bovine granulosa cells; 100 μM) was 9.07% and 7.58% and the “percentage of cells in G2/M, averaged” value (bovine granulosa cells; 100 μM) was 9.30%. For the same compound, the “percentage of cells in Late G1, averaged” value (bovine granulosa cells; 100 μM) was 68.22% and the “percentage of cells in S, averaged” value (bovine granulosa cells; 100 μM) was 8.33%.

With `CC[C@H](CO)Nc1nc(NCc2ccccc2)c2ncn(C(C)C)c2n1` [Ros, roscovitine] the “Blastocyst formation rate of NT embryos” value [1] was 12.9±0.5%, the “Cleavage rate of NT embryos” value [1] was 54.3±1.8% and the Calves born ([2]; NT embryos produced using roscovitine arrested donor cells) was “Two living genetically identical calves”. For the same compound, the “development rate beyond 200 days” value ([2]; roscovitine group, p<0.05 vs serum-starved group) was 12.5±2.0%, the “fetal developmental rate to 30-70 days” value [2, 3] was 27.8±2.7% and the “fetal developmental rate to 190 days” value [2, 3] was 12.5±2.0%. The “percentage of cells in G2/M” value (pig ear fibroblasts; 15 μM, replicates) was 23.37% and 23.80%, the “percentage of cells in Late G1” value (pig ear fibroblasts; 15 μM, replicates) was 61.63% and 60.68% and the “percentage of cells in S” value (pig ear fibroblasts; 15 μM, replicates) was 15.73% and 15.87%. The “percentage of cells in G2/M, averaged” value (pig ear fibroblasts; 15 μM) was 23.59%, the “percentage of cells in Late G1, averaged” value (pig ear fibroblasts; 15 μM) was 61.16% and the “percentage of cells in S, averaged” value (pig ear fibroblasts; 15 μM) was 15.80%. For the same compound, the “percentage of cells in G2/M” value (pig ear fibroblasts; 30 μM, replicates) was 17.13% and 17.83%, the “percentage of cells in Late G1” value (pig ear fibroblasts; 30 μM, replicates) was 69.67% and 68.49% and the “percentage of cells in S” value (pig ear fibroblasts; 30 μM, replicates) was 13.01% and 12.85%. The “percentage of cells in G2/M, averaged” value (pig ear fibroblasts; 30 μM) was 17.48%, the “percentage of cells in Late G1, averaged” value (pig ear fibroblasts; 30 μM) was 69.08% and the “percentage of cells in S, averaged” value (pig ear fibroblasts; 30 μM) was 12.93%. The “cells in late G1 phase” value (bovine granulosa cells; 15 μM roscovitine for 24 hours, p<0.05 vs serum starved and controls) was 82.4±0.2%, the “percentage of cells in G2-M phase” value (bovine granulosa cells; 15 μM roscovitine for 24 hours, p<0.05 vs serum-starved and controls) was 9.5±0.1% and the “percentage of cells in G2/M” value (bovine granulosa cells; 15 μM) was 16.29% and 16.97%. The “percentage of cells in Late G1” value (bovine granulosa cells; 15 μM) was 79.78% and 79.05%, the “percentage of cells in S” value (bovine granulosa cells; 15 μM) was 3.90% and 4.14% and the “percentage of cells in G2/M, averaged” value (bovine granulosa cells; 15 μM) was 16.63%. For the same compound, the “percentage of cells in Late G1, averaged” value (bovine granulosa cells; 15 μM) was 79.42%, the “percentage of cells in S, averaged” value (bovine granulosa cells; 15 μM) was 4.02% and the “percentage of cells in G2/M” value (bovine granulosa cells; 30 μM) was 14.41% and 14.42%. For the same compound, the “percentage of cells in Late G1” value (bovine granulosa cells; 30 μM) was 79.08% and 77.85%, the “percentage of cells in S” value (bovine granulosa cells; 30 μM) was 3.90% and 4.38% and the “percentage of cells in G2/M, averaged” value (bovine granulosa cells; 30 μM) was 14.42%. The “percentage of cells in Late G1, averaged” value (bovine granulosa cells; 30 μM) was 78.47%, the “percentage of cells in S, averaged” value (bovine granulosa cells; 30 μM) was 4.14% and the “Arresting cells in late G1, comparison of inhibitors” value (bovine granulosa cells; bovine granulosa cells and pig ear fibroblasts, tables 4-7) was “superior to olomoucine”.

For `COC(=O)Nc1nc2ccc(C(=O)c3cccs3)cc2[nH]1` [nocodazole], the “Percentage of bovine somatic cells in culture arrested” value (“Percentage of bovine somatic cells” for short) (bovine somatic cells; nocodazole 0.3 ug/ml, exposure 3 hours) was 10%, the “Percentage of bovine somatic cells” value (bovine somatic cells; nocodazole 0.3 ug/ml, exposure 10 hours) was 26% and the “Percentage of bovine somatic cells” value (bovine somatic cells; nocodazole 1.0 ug/ml, exposure 3 hours) was 8%. For the same compound, the “Percentage of bovine somatic cells” value (bovine somatic cells; nocodazole 1.0 ug/ml, exposure 10 hours) was 25%, the “Percentage of bovine somatic cells” value (bovine somatic cells; nocodazole 3 ug/ml, exposure 3 hours) was 9% and the “Percentage of bovine somatic cells” value (bovine somatic cells; nocodazole 3 ug/ml, exposure 10 hours) was 27%. For the same compound, the “Reversibility of nocodazole arrest of somatic cells” value (bovine somatic cells; preliminary experiments, removal of nocodazole) was “reversible”.

Values joined by “and” are separate entries in the source; they are usually repeats but may differ in a detail not shown here. Equal values may be shown once. Marks after values point to notes of the source that are not given here.
